Source: PubChem BioAssay AID1345082 (National Center for Advancing Translational Sciences (NCATS), 2018)
Several values for one entry are separate records, joined by “and”; a condition that tells them apart may be missing. Identical values can stand only once. Among all 94,000 compounds or so, about 4,000 (4.3%) were called active. The inconclusive results got no clear call from the source; some entries with a clear call stand among them for comparison. Calls follow the shape of the dose curve; as a rule, active = well fitted inhibition curve with a large enough effect; inconclusive = small, poorly fitted or top-dose-only effect; inactive = no such curve, though single readings can be large or run the other way. Where the call is inconclusive, the potency comes from a doubtful curve fit. Where a structure was tested more than once in an assay, its records may differ in their call.
Potency is read from the fitted curve at half-maximal effect; tags tell the direction and shape of the fitted curve.

Assay: Cytotoxic Profiling in NIH 3T3 Cell Line of Diverse Libraries Using Quantitative High-Throughput Screening; also: nearly all actives have a fitted effect of over 55% in size
Settings: NIH 3T3 viability, CellTiter-Glo ATP luminescence, 48-72 h; series mostly up to 96.7 µM
Summary of the method: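 Mouse fibroblast NIH 3T3 cells, 400 per well, received compound via pintool and were incubated for 48 or 72 hr prior to CellTiter-Glo ATP luminescence measurement.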
In the case of CCC(=O)N1CCC(C(NC(=O)c2ccccc2)C(=O)NCc2ccccc2)CC1 (stereo not given), the Potency is reported as “inactive”. For Cc1ccccc1C(=O)NC1CCN(Cc2cccc(-c3ccc(F)c(F)c3)c2)CC1, the Potency was inconclusive: 50.1 µM [inhibitor, partial curve, poor fit]. With COc1cc(OC)cc(C(=O)N2CCC3(CC2)NC(=O)N(c2cccc(F)c2)N3)c1 the Potency was inconclusive: 39.8 µM [inhibitor, partial curve]. For COc1ccccc1-c1nnc2n1C(C(=O)N1CCN(c3ncccn3)CC1)CC2 (stereo not given), the Potency was “inactive”. With CNC(=O)[C@H]1C[C@H](Oc2cccnc2)CN1C(=O)Nc1ccccc1 the Potency was “inactive”. With CC(C)NC(=O)c1cc(-c2ccccc2F)nc2c1cnn2C the Potency was inconclusive: 44.7 µM [inhibitor, partial curve, poor fit]. For FC(F)(F)Oc1ccc(-c2cnc([C@@H]3COCCN3Cc3ncc[nH]3)[nH]2)cc1, the Potency was inconclusive: 89.1 µM [inhibitor, partial curve]. For COc1ccc(Cc2nc3nccc(-c4ccc(F)cc4OC)n3n2)cc1, the Potency was inconclusive: 44.7 µM [inhibitor, partial curve, poor fit]. For CCOC(=O)[C@@H]1CN(C(=O)c2ccno2)[C@H]2c3ccccc3O[C@@H]12, the Potency was inconclusive: 50.1 µM [inhibitor, partial curve, poor fit]. For COc1ccc(OCc2cc(C(=O)NC(CO)C(C)C)no2)c2ccccc12 (stereo not given), the Potency was inconclusive: 79.4 µM [inhibitor, partial curve, poor fit]. For O=C(Nc1nc2c(s1)CCC2)C1CC(=O)N(c2n[nH]c3cc(Br)ccc23)C1 (stereo not given), the Potency was active: 17.8 µM. For CCS(=O)(=O)Nc1ccc(C2(C(=O)NCc3ccc(C)cc3)CCC2)cc1, the Potency was inconclusive: 20 µM [inhibitor, full curve, poor fit]. In the case of CCCNC(=O)[C@@H]1Cc2cn(Cc3nccn3C)c3cccc(c23)[C@H](CC(C)C)N1, the Potency is reported as active: 100 µM. With COCCNC(=O)c1cc(-c2ccc(Cl)cc2)nc2c1cnn2C the Potency was inconclusive: 50.1 µM [inhibitor, partial curve, poor fit]. In the case of COCCN1Cc2[nH]nc(-c3cccc(NC(C)=O)c3)c2CC1=O, the Potency is reported as inconclusive: 100 µM [inhibitor, partial curve]. For Cc1ccc(CN2CC[C@H](c3nc4ccc(C)cc4[nH]3)C2)cc1, the Potency was inconclusive: 100 µM [inhibitor, partial curve, poor fit]. With O=C1NC2(CCCN(Cc3ccc(C(F)(F)F)cc3)C2)COc2ccccc21 (stereo not given) the Potency was inconclusive: 50.1 µM [inhibitor, partial curve, poor fit]. For O=C(Nc1cccnc1)c1nc2c(o1)CCN(Cc1ccc(F)c(F)c1)CC2, the Potency was inconclusive: 35.5 µM [inhibitor, partial curve, poor fit]. With O=C(NCC1CN(Cc2cccnc2)CC12CN(c1ccccc1)C2)C1CC1 (stereo not given) the Potency was inconclusive: 89.1 µM [inhibitor, partial curve, poor fit]. In the case of COc1ccc(C(=O)N2CCCC(c3nc(CCOCC4CCCC4)no3)C2)cc1F (stereo not given), the Potency is reported as inconclusive: 44.7 µM [inhibitor, partial curve, poor fit]. With COc1ccccc1Cn1c(-c2ccccc2)nc(C)c(CCO)c1=O the Potency was inconclusive: 50.1 µM [inhibitor, partial curve, poor fit]. In the case of CN1CCN(C(=O)C[C@@H]2CCNC[C@@H]2Cc2cc(-c3ccccc3)on2)CC1, the Potency is reported as inconclusive: 126 µM [inhibitor, partial curve, poor fit]. In the case of COc1cccc(-c2ccccc2NC(=O)C2CCN(Cc3ccc(F)cc3)CC2)c1, the Potency is reported as active: 22.4 µM. With COc1ccc(S(=O)(=O)N2CCC(n3cnnc3-c3ccccc3)CC2)cc1Cl the Potency was inconclusive: 50.1 µM [inhibitor, partial curve, poor fit]. With COCCN(C)C(=O)c1nc2nc(-c3ccccc3)c(Cl)cc2n1C the Potency was inconclusive: 25.1 µM [inhibitor, full curve, poor fit]. For COc1ccc(C2Cn3nnc(C(=O)N4CCN(C(=O)c5ccccc5)CC4)c3CO2)cc1 (stereo not given), the Potency was “inactive”. For COC1CCOC2(CCN(C(=O)c3cc(-c4ccc(F)cc4)n[nH]3)CC2)C1 (stereo not given), the Potency was inconclusive: 56.2 µM [inhibitor, partial curve, poor fit]. For O=[S+]([O-])(NC1CCN(c2ccc3nnc(C4CC4)n3n2)C1)c1ccccc1 (stereo not given), the Potency was inconclusive: 44.7 µM [inhibitor, partial curve, poor fit]. For CNC(=O)c1cc(C2CC2)nc2onc(C3CCCN(C(=O)c4ccccc4)C3)c12 (stereo not given), the Potency was “inactive”. With Cc1ccc(C(=O)N2CCC3(CC2)NC(=O)N(c2ccccc2)N3)cc1 the Potency was inconclusive: 17.8 µM [inhibitor, full curve]. For COc1cccc(NC(=O)c2cnc3c(c2)N(C(=O)Cc2ccccc2OC)CCC3)c1, the Potency was “inactive”. For O=C(c1ccc(Cl)nc1)N1CCCC(c2nn(-c3ccc(Cl)cc3)c(=O)[nH]2)C1 (stereo not given), the Potency was inconclusive: 44.7 µM [inhibitor, partial curve, poor fit]. For O=C(NC1CCCN(c2cc(-c3ccc(Cl)cc3)[nH]n2)C1)c1ccccc1F (stereo not given), the Potency was inconclusive: 44.7 µM [inhibitor, partial curve, poor fit]. With CCOc1ccc(C(=O)NC2CCCN(c3cc(-c4ccc(OC)cc4)[nH]n3)C2)cc1 (stereo not given) the Potency was “inactive”. With CCc1noc(-c2cn(C3CCN(C(=O)C(C)c4ccccc4)CC3)nn2)n1 (stereo not given) the Potency was “inactive”. In the case of O=C1CN(C(=O)c2cccs2)CC(O)CN1CCc1ccccc1 (stereo not given), the Potency is reported as inconclusive: 79.4 µM [inhibitor, partial curve, poor fit]. In the case of O=C1c2c(nc(COc3cccc(C(F)(F)F)c3)n2Cc2ccccc2)NCCN1CC1CC1, the Potency is reported as active: 35.5 µM. With O=[S+]([O-])(NC1CCCN(c2ccnc3ccnn23)C1)c1cccc(C(F)(F)F)c1 (stereo not given) the Potency was inconclusive: 50.1 µM [inhibitor, partial curve, poor fit]. For COC(=O)[C@@H]1Cc2ncn(Cc3ccccc3)c2CN1C(=O)C1CCCCC1, the Potency was inconclusive: 100 µM [inhibitor, partial curve, poor fit]. In the case of COc1ccc(-c2nc(-c3c(C)noc3C)cc3c2cc(C)n3CCN(C)C)cc1OC, the Potency is reported as inconclusive: 100 µM [inhibitor, partial curve, poor fit]. For CCCc1nnc(C[C@@H]2C[C@@H](C(C)C)[C@H](CN3CC[C@H](NC(C)=O)C3)C=C2C)o1, the Potency was “inactive”. In the case of C#CCNC(=O)c1cn2cc(-c3cccc(OC)c3)sc2n1, the Potency is reported as inconclusive: 89.1 µM [inhibitor, partial curve, poor fit]. In the case of O=c1cc(-c2cnccn2)oc2c(Nc3ccccn3)nccc12, the Potency is reported as inconclusive: 3.55 µM [inhibitor, full curve, poor fit]. In the case of Cc1onc(-c2cnn(C)c2NCCc2ccccc2)c1C(=O)N1CCC(c2ccccc2)CC1, the Potency is reported as inconclusive: 50.1 µM [inhibitor, partial curve, poor fit]. In the case of Cn1ncc2c(C(=O)NCCc3ccccc3F)cc(-c3cccnc3)nc21, the Potency is reported as “inactive”. With COc1ccc(-c2nc(C)nc3c2CCN([S+](=O)([O-])c2cccc(C(F)(F)F)c2)CC3)cc1 the Potency was inconclusive: 50.1 µM [inhibitor, partial curve, poor fit]. For Cc1nn(-c2ccccc2)c2c1C(C)N(CC1CN(C(=O)c3cccc(Cl)c3)C1)C2=O (stereo not given), the Potency was inconclusive: 39.8 µM [inhibitor, partial curve, poor fit]. With CCc1nc2c(c(-c3ccc(Cl)cc3)n1)CN(S(=O)(=O)c1ccccc1)CC2 the Potency was “inactive and active: 20 µM”. For COCCCNC(=O)[C@@H]1Cc2cn(Cc3nccn3C)c3cccc(c23)[C@H](CC(C)C)N1, the Potency was “inactive”. For CCc1nc(-c2c3n(c(=O)n(Cc4ccccc4OC)c2=O)CCCCC3)no1, the Potency was inconclusive: 50.1 µM [inhibitor, partial curve, poor fit]. In the case of CN1[C@@H](CCC(=O)Nc2ccccc2)CNC(=O)[C@@H]2[C@H]1CCN2Cc1nc2ccccc2n1C, the Potency is reported as inconclusive: 89.1 µM [inhibitor, single point]. With CN(C)CCOCC1(C)COc2ccc(C(=O)NCc3cccc(F)c3)cc2N1 (stereo not given) the Potency was inconclusive: 56.2 µM [inhibitor, partial curve, poor fit]. With CN1C[C@@H](NC(=O)CC(C)(C)C)C[C@H]1c1nc(-c2ccc3c(c2)OCO3)no1 the Potency was inconclusive: 56.2 µM [inhibitor, partial curve, poor fit]. With COCC1CN(C(=O)Cn2nc(C(F)(F)F)cc2C)CC12CCNCC2 (stereo not given) the Potency was “inactive”. For COc1ccc2cc(C3CN(S(=O)(=O)c4cn(C)cn4)CCO3)ccc2c1 (stereo not given), the Potency was inconclusive: 44.7 µM [inhibitor, partial curve, poor fit]. In the case of COc1ccc(C(=O)NC2CCN(c3cc(-c4cccs4)[nH]n3)C2)cn1 (stereo not given), the Potency is reported as “inactive”. For Cc1noc(-c2ccco2)c1C(=O)NCc1cccc(Cl)c1, the Potency was inconclusive: 39.8 µM [inhibitor, partial curve, poor fit]. With COc1cccc(CC(=O)N2CCC3(CC2)OC(=O)N(Cc2ncccn2)C3(C)c2ccccc2)c1 (stereo not given) the Potency was inconclusive: 50.1 µM [inhibitor, partial curve, poor fit]. In the case of Nc1nc(-c2cccc(CN3CCOCC3)c2)cc(N2CCCC2)n1, the Potency is reported as inconclusive: 79.4 µM [inhibitor, single point]. In the case of CCn1c(CN(C)C)nnc1C1CCN(Cc2cnc(N(C)C)s2)CC1, the Potency is reported as “inactive”.
